Measured values reported in PubChem BioAssay AID485360 (National Center for Advancing Translational Sciences (NCATS), 2010).
The whole screen tested about 230,000 compounds, of which about 1,500 (0.65%) were called active. Inconclusive results, whose numbers are uncertain, are shown with a selection of clear calls. Calls follow the shape of the dose curve; as a rule, active = well fitted inhibition curve with a large enough effect; inconclusive = small, poorly fitted or top-dose-only effect; inactive = no such curve, though single readings can be large or run the other way. Potencies beside an inconclusive call are fits to weak or partial responses and may not hold up.

Target: Lethal(3)malignant brain tumor-like protein 1 (Homo sapiens) (UniProt Q9Y468)
Assay: qHTS Assay for the Inhibitors of L3MBTL1; also: nearly all actives have a fitted effect of over 60% in size
Details: AlphaScreen L3MBTL1–H3K9me1 peptide binding; activity, negative = inhibition: at 57.1 µM (top of the series)
How it was run: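 Read-out is AlphaScreen signal from streptavidin donor and nickel chelate acceptor beads (10 ug/mL final each) bridging L3MBTL1 (50 nM) and biotinylated K9-monomethylated H3(1-15) peptide (75 nM), after 30 min compound exposure at room temperature.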
% is scaled to controls: 0 for no effect and ±100 for the full control effect; potency is read from the fitted curve at half-maximal effect; tags tell the direction and shape of the fitted curve.

Chain of UniProt Q9Y468 (Q9Y468 whole entry, looked up): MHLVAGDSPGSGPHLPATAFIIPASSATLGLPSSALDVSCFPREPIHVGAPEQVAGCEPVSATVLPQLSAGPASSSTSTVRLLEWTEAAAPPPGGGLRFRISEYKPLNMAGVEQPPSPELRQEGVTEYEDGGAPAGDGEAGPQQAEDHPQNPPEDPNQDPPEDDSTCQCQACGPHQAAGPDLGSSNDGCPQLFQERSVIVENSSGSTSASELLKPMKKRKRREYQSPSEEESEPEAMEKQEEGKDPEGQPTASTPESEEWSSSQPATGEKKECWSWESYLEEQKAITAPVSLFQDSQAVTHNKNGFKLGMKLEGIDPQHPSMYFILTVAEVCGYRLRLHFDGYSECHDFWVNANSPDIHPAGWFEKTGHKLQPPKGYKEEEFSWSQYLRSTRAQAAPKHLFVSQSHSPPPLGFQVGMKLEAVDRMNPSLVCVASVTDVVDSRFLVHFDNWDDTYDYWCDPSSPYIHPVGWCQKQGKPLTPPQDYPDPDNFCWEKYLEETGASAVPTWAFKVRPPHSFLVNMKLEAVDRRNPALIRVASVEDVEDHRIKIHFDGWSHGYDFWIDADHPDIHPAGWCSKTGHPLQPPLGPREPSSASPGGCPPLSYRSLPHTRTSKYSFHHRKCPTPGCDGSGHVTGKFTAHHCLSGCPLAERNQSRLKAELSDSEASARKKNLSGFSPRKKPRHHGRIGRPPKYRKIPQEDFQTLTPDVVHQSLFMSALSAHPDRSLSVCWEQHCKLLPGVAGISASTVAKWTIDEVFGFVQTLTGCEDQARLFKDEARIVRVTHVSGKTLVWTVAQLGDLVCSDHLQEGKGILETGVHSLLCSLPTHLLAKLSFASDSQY

**Q.** For O=C(O)C1C2C=CC(O2)C1C(=O)NCCC1=CCCCC1 (stereo not given), which Potency is on record?
**A.** active: 17.8 µM

**Q.** O=C(NC1CCCC1)c1ncn[nH]1 was tested. Which Potency did it give?
**A.** inconclusive: 25.1 µM [inhibitor, single point]

**Q.** With COC(=O)CSc1ncnc2c1sc1nc(-c3ccco3)c3c(c12)CC(C)(C)OC3 as the compound, how does the Potency read?
**A.** inconclusive: 31.6 µM [inhibitor, single point]

**Q.** Which Potency does the source give for CCOc1ccc(NC(=O)CCN2CCN(S(=O)(=O)c3cc(Cl)ccc3OC)CC2)cc1 here?
**A.** inactive

**Q.** How did the Potency turn out when Cc1cccc(C)c1NC(=O)C(Cl)=C(Cl)Cl was run?
**A.** inconclusive: 39.8 µM [inhibitor, single point]

**Q.** How did the Potency turn out when Cc1cc(NS(=O)(=O)c2ccc(NC(=O)CSc3nc4ncccc4[nH]3)cc2)nc(C)n1 was run?
**A.** inactive

**Q.** For CC1(C)COC(/C=C/c2cccc([N+](=O)[O-])c2)=N1, which Potency is on record?
**A.** inconclusive: 8.91 µM [inhibitor, single point]

**Q.** With Cc1ccc(NC(=O)Nc2cccc(F)c2)nc1 as the compound, how does the Potency read?
**A.** inconclusive: 6.31 µM [inhibitor, single point]

**Q.** Which Potency does the source give for CN(C)c1cccc2c1C(=O)c1ccccc1C2=O here?
**A.** active: 25.1 µM

**Q.** Which Potency does the source give for COC(=O)c1ccc2nc(C)cc(Nc3ccc(N(C)C)cc3)c2c1 here?
**A.** inconclusive: 15.8 µM [inhibitor, partial curve]

**Q.** For O=C(Cc1n[nH]c(=O)c2ccccc12)OCC(=O)c1ccc(OC(F)F)cc1OC(F)F, which Potency is on record?
**A.** inactive

**Q.** Cc1nc2ccccc2c(=O)n1NC(=O)c1cccc([N+](=O)[O-])c1 was tested. Which Potency did it give?
**A.** inconclusive: 39.8 µM [inhibitor, single point]

**Q.** How did the Potency turn out when CNc1ncnc(Sc2ccc(Cl)cc2)c1[N+](=O)[O-] was run?
**A.** inactive

**Q.** Which Potency does the source give for COc1cc(OC)c(OC)cc1/C=C1\Oc2cc(OS(C)(=O)=O)ccc2C1=O here?
**A.** inconclusive: 35.5 µM [inhibitor, single point]

**Q.** How did the Potency turn out when O=C1C=C(c2ccc3ncccc3c2)C[C@@H](c2ccc3c(c2)OCO3)C1 was run?
**A.** inactive

**Q.** For CCn1cc([C@@H]2C[C@H]3CN(Cc4cccc(Cl)c4)C(=O)[C@]34CCCN24)c(C)n1, which Potency is on record?
**A.** inconclusive: 6.31 µM [inhibitor, single point]

**Q.** Which Potency does the source give for CN(C)/N=C/c1ccc(Sc2ccccc2[N+](=O)[O-])o1 here?
**A.** inconclusive: 8.91 µM [inhibitor, partial curve]

**Q.** CC1Cn2c(nnc2-c2ccccc2O)S1 (stereo not given) was tested. Which Potency did it give?
**A.** inactive

**Q.** Which activity, negative = inhibition does the source give for COc1ccc(-c2cc3nc(C)cc(-c4ccc(OC)cc4)n3n2)cc1 here?
**A.** inactive: 13.2% [at 2.29 µM]

**Q.** Which Potency does the source give for C#CCOCCOCCOCCNc1nc(N2CCN(C(=O)CCCCCCCCCCNC(=O)[C@H](CCCCN)n3cc(C)nn3)CC2)nc(N2CCN(C(=O)CCCCCCCCCCNC(=O)[C@H](CCCN=C(N)N)n3cc(C[C@@H](C)CC)nn3)CC2)n1 here?
**A.** inconclusive: 31.6 µM [inhibitor, single point]

**Q.** CCOC(=O)c1[nH]c(C)c(C(=O)N2CCN(c3ccccc3)CC2)c1C was tested. Which Potency did it give?
**A.** inactive

**Q.** How did the Potency turn out when Cc1cccc(Oc2cc([N+](=O)[O-])cc3c2C(=O)Nc2ccccc2O3)c1 was run?
**A.** inconclusive: 28.2 µM [inhibitor, single point]

**Q.** Which Potency does the source give for O=C(/C=C/c1ccco1)Nc1cccc(S(=O)(=O)N2CCOCC2)c1 here?
**A.** inconclusive: 35.5 µM [inhibitor, partial curve]

**Q.** Which Potency does the source give for Cc1ccc(O)c(C(=O)c2cnc3c(c2)COc2ccc(C)cc2-3)c1 here?
**A.** inconclusive: 35.5 µM [inhibitor, single point]

**Q.** With Cc1ccc(NC(=S)NCc2ccc3[nH]c4c(c3c2)CCCC4)cc1 as the compound, how does the Potency read?
**A.** inconclusive: 39.8 µM [inhibitor, single point]

**Q.** For COc1ccc(C2=NN(C(=O)CCC(=O)O)C(c3cccs3)C2)cc1 (stereo not given), which Potency is on record?
**A.** inconclusive: 31.6 µM [inhibitor, partial curve]

**Q.** O=C(c1ccco1)N1CCn2cccc2C1c1ccccc1 (stereo not given) was tested. Which Potency did it give?
**A.** inconclusive: 39.8 µM [inhibitor, partial curve]

**Q.** How did the Potency turn out when CCOC(=O)c1ccc2ncc(C(=O)OCC)c(Nc3ccc(N4CCOCC4)cc3)c2c1 was run?
**A.** inconclusive: 17.8 µM [inhibitor, partial curve]

**Q.** How did the Potency turn out when CN1CCC(=NOc2ccc([N+](=O)[O-])cc2)CC1 was run?
**A.** inconclusive: 0.112 µM [inhibitor, full curve, poor fit]

**Q.** With COC(=O)c1ccc(C(=O)O)nc1 as the compound, how does the Potency read?
**A.** inconclusive: 31.6 µM [inhibitor, single point]

**Q.** How did the Potency turn out when Cc1ccc(S(=O)(=O)Nc2ccccc2N(C)S(=O)(=O)c2ccc(C)cc2)cc1 was run?
**A.** inactive

**Q.** With COc1ccc(CNc2ccc(C)c(C)c2)cc1 as the compound, how does the Potency read?
**A.** inconclusive: 25.1 µM [inhibitor, single point]

**Q.** Which Potency does the source give for CC(=O)N1CCC(N(C(=O)Nc2ccc(C)c(C)c2)C2CCCC2)CC1 here?
**A.** inactive

**Q.** How did the Potency turn out when COc1ccc(O)c(C(=O)C2c3ccccc3C(=O)N2c2ccc(C)cc2)c1 (stereo not given) was run?
**A.** inactive

**Q.** How did the Potency turn out when CS(=O)(=O)c1ncc(Cl)c(C(=O)Nc2ccc3ccccc3c2)n1 was run?
**A.** inactive

**Q.** With COc1cccc(CNc2ccc3[nH]c(=O)[nH]c3c2)c1OCc1ccccc1F as the compound, how does the Potency read?
**A.** inconclusive: 17.8 µM [inhibitor, partial curve]

**Q.** With C/C(=N\NC(=O)c1cc(-c2cccs2)nc2ccccc12)c1ccccn1 as the compound, how does the Potency read?
**A.** active: 28.2 µM

**Q.** For CC(C)C(c1nnnn1C1CCCC1)N1c2ccccc2CC1C (stereo not given), which Potency is on record?
**A.** inconclusive: 2 µM [inhibitor, partial curve, poor fit]

**Q.** Which Potency does the source give for Cc1c(C(=O)NCc2ccc3c(c2)OCO3)oc2ccc(S(=O)(=O)N3CCC(C)CC3)cc12 here?
**A.** inconclusive: 10 µM [inhibitor, partial curve, poor fit]

**Q.** How did the Potency turn out when NC(=O)CC(NC(=O)c1ccccc1)c1ccc(N2CCN(c3ccc(F)cc3)CC2)c([N+](=O)[O-])c1 (stereo not given) was run?
**A.** inconclusive: 0.708 µM [inhibitor, single point]

**Q.** COc1ccc2c(c1)-c1c(ssc1=S)C(C)(C)N2 was tested. Which Potency did it give?
**A.** active: 20 µM

**Q.** How did the Potency turn out when COc1cc(/C=C/C(=O)C2C(=O)C=C(C)OC2=O)cc(OC)c1O (stereo not given) was run?
**A.** inactive

**Q.** How did the Potency turn out when CCOc1ccc(NCc2nnc(SCc3ccccc3Cl)n2-c2ccccc2)cc1 was run?
**A.** inconclusive: 28.2 µM [inhibitor, single point]

**Q.** For Cc1csc(SC(C)C(=O)NCc2ccc3c(c2)OCO3)n1 (stereo not given), which Potency is on record?
**A.** inconclusive: 0.1 µM [inhibitor, full curve, poor fit]

**Q.** Which Potency does the source give for COc1cc(C2C(C#N)=C(N)OC3=C2C(=O)CCC3)c([N+](=O)[O-])cc1OC (stereo not given) here?
**A.** inconclusive: 35.5 µM [inhibitor, single point]

**Q.** For CCc1cc2c3c(c1)C(C)CC(C)(C)N3C(=O)/C2=C1\SC(=O)NC1=O (stereo not given), which Potency is on record?
**A.** inconclusive: 12.6 µM [inhibitor, partial curve]

**Q.** Which Potency does the source give for Cc1ccc(C)c(SCC(=O)OC/C(O)=C(\C#N)c2nc3ccccc3[nH]2)c1 here?
**A.** inactive

**Q.** How did the Potency turn out when COc1ccc2sc(-c3ccc(N(C)C)cc3)c(C#Cc3cncn3C)c2c1 was run?
**A.** inconclusive: 25.1 µM [inhibitor, single point]

**Q.** How did the Potency turn out when CC(=O)Nc1ccc(NC(=O)c2cccc(C(=O)OC(C)C)n2)cc1 was run?
**A.** inactive

**Q.** With CCOc1ccc(C(=O)NCC(=O)OCCN2C(=O)c3ccccc3C2=O)cc1OCC as the compound, how does the Potency read?
**A.** inconclusive: 0.631 µM [inhibitor, single point]

**Q.** Which Potency does the source give for CC1CCCCC1NC(=O)/C(C#N)=C/C=C/c1ccccc1[N+](=O)[O-] (stereo not given) here?
**A.** inconclusive: 14.1 µM [inhibitor, partial curve]

**Q.** For O=c1[nH]c(CN2CCN(c3ccc(O)cc3)CC2)nc2scc(-c3ccc(Cl)cc3)c12, which Potency is on record?
**A.** inconclusive: 5.01 µM [inhibitor, partial curve]

**Q.** Which Potency does the source give for NS(=O)(=O)c1ccc(N2C(=O)C(=O)/C(=C(/O)c3ccccc3)C2c2ccc(Cl)cc2)cc1 (stereo not given) here?
**A.** inactive

**Q.** With Clc1ccc(-n2cccc2CN2CCc3c([nH]c4ccccc34)C2c2ccccn2)nc1 (stereo not given) as the compound, how does the Potency read?
**A.** inconclusive: 3.98 µM [inhibitor, full curve]

**Q.** For O=C(O)CCCCCNC(=O)/C(=C\c1ccco1)NC(=O)c1ccco1, which Potency is on record?
**A.** inconclusive: 35.5 µM [inhibitor, single point]

**Q.** How did the Potency turn out when CCS(=O)(=O)N1CCC(C(=O)c2ccc(Cl)cc2)CC1 was run?
**A.** inconclusive: 10 µM [inhibitor, full curve, poor fit]

**Q.** How did the Potency turn out when Nc1nsc2ccccc12 was run?
**A.** inactive

**Q.** With CCC(CC)C(=O)Nc1cccc(C(=O)NCc2ccco2)c1 as the compound, how does the Potency read?
**A.** inconclusive: 22.4 µM [inhibitor, single point]

**Q.** Which Potency does the source give for CC(OC(=O)c1cc(Br)ccc1O)C(=O)NCc1ccc2c(c1)OCO2 (stereo not given) here?
**A.** inconclusive: 0.708 µM [inhibitor, single point]

**Q.** How did the Potency turn out when CCCOC(=O)c1ccc(Oc2cn[nH]c2-c2ccc(OCC(=O)NN)cc2O)cc1 was run?
**A.** inconclusive: 20 µM [inhibitor, partial curve]

**Q.** CN(C(=O)c1cnc(N2CCN(c3ncccn3)CC2)c2ccccc12)c1ccc(Cl)cc1 was tested. Which Potency did it give?
**A.** inactive

**Q.** How did the Potency turn out when COc1cc(N/C=C2\CC(=O)NC(C)=C2C#N)cc(OC)c1OC was run?
**A.** inconclusive: 5.01 µM [inhibitor, single point]

**Q.** Which Potency does the source give for Cc1cccc(C)c1NC(=O)CSc1nnc(-c2ccco2)c(-c2ccco2)n1 here?
**A.** active: 2.82 µM

**Q.** Which Potency does the source give for O=C(CCN1CCOCC1)N/N=C/c1cc(Br)cc(Br)c1O here?
**A.** inactive

**Q.** Nc1cc(=O)[nH]c(SCC(=O)N2CCCCC2)n1 was tested. Which Potency did it give?
**A.** inactive

**Q.** For COc1ccc(OC)c(NC2c3ncccc3C(=O)N2Cc2ccco2)c1 (stereo not given), which Potency is on record?
**A.** inactive

**Q.** How did the Potency turn out when COC(=O)CSc1nnc(Cc2ccccc2)n1-c1ccc(C)cc1 was run?
**A.** inconclusive: 12.6 µM [inhibitor, partial curve, poor fit]

**Q.** c1ccc(-c2ccc(-c3ccccn3)nn2)nc1 was tested. Which Potency did it give?
**A.** active: 3.55 µM

**Q.** For Cc1ccc2cccc(OCC(=O)Nc3ccc4c(c3)OCO4)c2n1, which Potency is on record?
**A.** inconclusive: 25.1 µM [inhibitor, partial curve, poor fit]

**Q.** CC(C)COCc1ccc(O)c2ncccc12 was tested. Which Potency did it give?
**A.** active: 20 µM
